Test results: PubChem BioAssay (NCI)
Where “and” joins values, the source holds several entries; their conditions need not be identical. Equal entries are not always repeated.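 Five compound concentrations were applied to cells in 96-well plates for 48 hours; endpoints were derived by simple linear interpolation of the resulting dose-response curve. GI50 = concentration required for 50% inhibition of growth. The concentration for full growth arrest is given as TGI.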

Test system: NCI-H322M lung
Experiment: growth of human tumour cells (NCI), 48 h

Row | SMILES | TGI | GI50
1 | O=C1C2c3[nH]c4ccccc4c3C3CCSCC3C2C(=O)N1c1ccccc1 (stereo not drawn) | > 100 µM | 
2 | CCOC(=O)Oc1c(OC)cc(C(=O)c2ccc(OC)c(OC(=O)CCl)c2OC)cc1OC | > 100 µM | 3.41 µM
3 | Cc1nc2ccc(S(=O)(=O)Nc3ccccn3)cc2c(=O)n1NS(=O)(=O)c1ccccn1 | > 100 µM | 
4 | C=C[C@@]1(C)CC(=O)[C@]2(O)[C@@]3(C)[C@@H](OC(C)=O)CCC(C)(C)[C@@H]3[C@H](O)[C@H](OC(C)=O)[C@@]2(C)O1 | > 100 µM | 
5 | N#Cc1cccc(Nc2ccccc2SSc2ccccc2Nc2cccc(C#N)c2)c1 | > 21.5 µM | 
6 | O=C(c1ccccc1)c1ccc2cccc(O)c2n1 | > 100 µM | 
7 | CCOc1cc(NC(C)=O)ccc1C(=O)NN1C(=O)C(Cl)C1c1ccc(O)c(OC)c1 (stereo not drawn) | 26.6 µM | 
8 | Nc1ccc2c(c1)N(C(=O)CCCC(=O)N1CC(CCl)c3ccc(N)cc31)CC2CCl (stereo not drawn) | > 28.5 µM | 
9 | CN(C)CCN1N=Nc2cccc3cccc1c23 | > 100 µM | 
10 | O=C(O)C1CCCN1Cc1c[nH]c2ccccc12 (stereo not drawn) | > 100 µM | 
11 | COc1ccccc1-c1n[nH]c(-c2ccccc2O)n1 | > 100 µM | 
12 | N#Cc1c(-c2cccc(Br)c2)cc(-c2ccc(Cl)cc2)nc1N | > 100 µM | 
13 | CCNCCNc1cc(-c2ccc(Cl)cc2)c(C#N)c2nc3ccccc3n12 | 3.3 µM | 1.68 µM
14 | COc1ccc(C(=O)c2cc(OC)c(OC)c(OC)c2)cc1/C=C/C(=O)c1ccc(O)cc1 | 19.3 µM | 6.03 µM
15 | COC(=O)/C=C/COCC1C2CCC(=O)C21 (stereo not drawn) | > 100 µM | 
16 | COc1cccc(/C=C\c2cc(OC)c(OC)c(OC)c2)c1 | > 100 µM | 
17 | COc1ccc(/C=C(\C#N)n2nnc3cc(Cl)ccc32)cc1 | 13.3 µM | 2.68 µM
18 | COc1ccc(/C=C/C(=O)c2cccc(C(=O)/C=C/c3ccc(OC)c(OC)c3)n2)cc1OC | > 100 µM | 
19 | CC[N+](C)(C)c1ccc(C(=C2C=CC(=[N+](C)C)C=C2)c2ccc(N(C)C)cc2)cc1 | 78.2 µM | 
20 | OC12c3ccccc3C1CCCCCCCCCC21OCCCO1 (stereo not drawn) | > 100 µM | 
21 | NS(=O)(=O)c1ccc(NC(=S)/N=C/c2c(O)c3ccccc3[nH]c2=O)cc1 | > 100 µM | 
22 | N#CC12CCC(O)C(CC1)C2=O (stereo not drawn) | > 100 µM | 
23 | CC[C@@]1(O)C(=O)OCc2c1cc1n(c2=O)Cc2c-1nc1ccccc1c2C=Nc1ccc(N[C@@H]2c3cc4c(cc3[C@@H](c3cc(OC)c(O)c(OC)c3)[C@H]3C(=O)OC[C@@H]32)OCO4)cc1 |  | 0.771 µM and 0.119 µM
24 | CCOC(=O)/C(=C\NC[C@@H](C)O)c1nc2ccccc2[nH]1 | > 100 µM | 
25 | COC(=O)C1C(O)C(C)C(O)C(C)/C=C\C=C(C)C(=O)Nc2c(C)c(OC(C)=O)c3c(c2O)C(=O)C(C)=C2OCOC(=C23)C(C)=CC(C)(O)C(O)C(C)C1O (stereo not drawn) | > 100 µM | 41.9 µM and > 100 µM

Row | SMILES | TGI | GI50
26 | O=S(=O)(O)c1cc(S(=O)(=O)O)c2c(N=Nc3ccccc3)c(O)ccc2c1 | > 100 µM | 
27 | OCc1ccc(N(Cc2ccc(F)cc2)C2CCC2)cc1Cl | 21.7 µM | 9.36 µM
28 | COc1cccc(-c2nc(-c3ccc(NS(=O)(=O)c4ccccc4)cc3)[nH]c2-c2ccnc(Br)c2)c1 | > 100 µM | 3.22 µM
29 | COP(=N[Si](C)(C)C)(OC)OC | > 100 µM | 
30 | O=c1oc2ccccc2cc1-c1nc2ccccc2c(=O)[nH]1 | > 100 µM | 
31 | C=C(CN1CCc2ccccc2C1)c1ccc(/C=C/C(=O)Nc2ccccc2N)cc1 | > 100 µM | 4.09 µM
32 | Cc1ccc(C)c(NC(=O)CC2C(=O)Nc3ccccc3S2(=O)=O)c1 (stereo not drawn) | > 100 µM | 
33 | CC(=O)O[C@H]1CC[C@@]2(C)C(=CC[C@H]3[C@@H]4C[C@H](N5CCN(C)CC5)[C@H](OC(C)=O)[C@@]4(C)CC[C@@H]32)C1 | 36 µM | 
34 | COc1cc2c3c(n(CCCO)c(=O)c2cc1OC)-c1cc2c(cc1C3=O)OCO2 | > 70.5 µM | 9.11 µM
35 | COc1ccc(-n2c(-c3ccc(NC(=O)CCCl)cc3)nnc2-c2cc(OC)c(OC)c(OC)c2)cc1 | 12.6 µM | 3.15 µM
36 | Cn1cc(-c2nc(-c3c[nH]c4ncccc34)cs2)c2cc(Cl)ccc21 | 47.7 µM | 2.64 µM
37 | CCC(C)C1=C(O)[N+]2([O-])Oc3ccc(-c4c(O)c(O)c(-c5ccc(O)cc5)c(OC(C)=O)c4OC(C)=O)cc3OC2(C(C)CC)C(=O)N1O (stereo not drawn) | > 50 µM | 
38 | N#C[C@]12CC3(CC[C@H]1CC1(C2)OCCO1)OCCO3 | > 100 µM | 
39 | O=C1C(c2ccc(Cl)cc2)=[N+]([O-])c2ccccc21 | 73.4 µM | 
40 | CCN(CC)c1ccc2[nH]c3c(C(N)=O)cc(=O)c(=O)c=3oc2c1 | 4.77 µM | 1.71 µM
41 | COC(=O)/N=[N+](\[O-])C(c1ccc(Cl)cc1)c1ccc(Cl)cc1 | > 100 µM | 
42 | Nc1nc(SCC(=O)O)[nH]c(=O)c1N | > 100 µM | 
43 | Cc1c2[nH]c3ccc(Br)cc3c2c(C)c2[nH]ccc(=O)c12 | 29.6 µM | 
44 | N#Cc1c2ccccc2c2nnc3cc(C(F)(F)F)ccc3n12 | > 100 µM | > 100 µM
45 | Cc1cc(Cl)ccc1NC(=O)/C(Cc1nc2ccc(C(=O)c3ccccc3)cc2[nH]c1=O)=N/NC(=O)c1ccncc1 | > 100 µM | 
46 | COc1ccc2c(c1OC)C(Br)CCC(Br)(Br)C2=O (stereo not drawn) | 30.8 µM | 
47 | O=C1C(Cl)=C(Oc2ccccc2)C(=O)c2ccccc21 | 8 µM | 2.47 µM
48 | O=C1c2cccnc2-c2nc(-c3ccccn3)cc3c2c1nc1ccccc13 | 1.95 µM | 0.524 µM
49 | CN(C(=O)C12C3C4C1C1C2C3C41C(=O)O)C(C)(C)C (stereo not drawn) | > 100 µM | 
50 | Cc1cccc(/C=N/NC(=S)NC2CCCCC2)n1 | > 100 µM | 

Row | SMILES | TGI | GI50
51 | CCCCCCC(O)C/C=C/CCCCCC/C(C(=O)OC)=C(/O)C(=O)OCC (stereo not drawn) | > 100 µM | 
52 | Cc1ccc(-n2nnc3c(NNc4ccccc4)n[nH]c(=O)c32)cc1 | > 100 µM | 
53 | Cc1nc(C)c(N2CCN(C(=O)NC(CCC(=O)O)C(=O)O)CC2)c(=O)[nH]1 (stereo not drawn) | > 100 µM | 
54 | Cc1cc(S(=O)(=O)Nc2nnc(-c3ccco3)c(-c3ccco3)n2)c(SCc2ccccc2)cc1Cl | 59.8 µM | 21.6 µM
55 | COC(=O)/C=C1\SC(=Nc2ccc(C(F)(F)F)cc2)N(CCc2c[nH]c3ccccc23)C1=O | 4.63 µM | 2.08 µM
56 | COC(=O)CC(SCCO)SCCO | > 100 µM | 
57 | Cc1ccc2c(/C=C/C(=O)c3cc(CN4CCOCC4)c(O)c4nc(C)ccc34)cc(CN3CCOCC3)c(O)c2n1 | 9.25 µM | 1.5 µM
58 | COc1cccc2c(Nc3ccc(C(=O)NCCNCCO)cc3)cc(-c3ccccc3)nc12 | > 100 µM | 33 µM
59 | CN(C)CCCNC(=O)c1cc(NC(=O)c2cc(NC(=O)CCCN3c4ccccc4C=Cc4ccccc43)cn2C)cn1C | 8.31 µM | 1.82 µM
60 | CC(C)(C)C(=O)Nc1ccccc1Br | > 100 µM | 
61 | CCOC(=O)c1[nH]c2cccc3c2c1CC(Br)C3=O (stereo not drawn) | 22.6 µM | 
62 | O=c1oc2ccccc2c(Cl)c1Cl | 27.4 µM | 14 µM
63 | CCOC(=O)NC(Nc1cccc(F)c1)(C(F)(F)F)C(F)(F)F | > 100 µM | 
64 | O=P(Oc1ccccc1)(Oc1ccccc1)C(O)c1ccccc1 (stereo not drawn) | > 100 µM | 57.1 µM
65 | COc1ccc(-c2cc(-c3ccccc3)c3c(n2)-c2ccccc2NC(=O)C3)cc1 | > 100 µM | 
66 | O=c1oc2ccccc2cc1-c1ccc([N+](=O)[O-])cc1 | > 100 µM | 
67 | Nc1c(O)c2c(c(O)c1Cl)C(=O)C=CC2=O | 4.29 µM | 
68 | CC(C)(C)c1cc(C(C)(C)C)c(P=C(Cl)Cl)c(C(C)(C)C)c1 (stereo not drawn) | > 100 µM | 
69 | O=C(Nc1ccccc1)O/N=C1/CCCC/C1=C\c1ccccc1 | 40.6 µM | 
70 | COc1ccc(-c2nc3sccn3c2/C=C/C(=O)c2cc(OC)c(OC)c(OC)c2)cc1OC | 80.1 µM | 4.31 µM
71 | O=[N+]([O-])/C(C(Cl)=C(Cl)Cl)=C(\Nc1cccc2cccnc12)Sc1ccccc1 | > 100 µM | 
72 | CNc1nc2c(C)ccc3nc(N(C)C)nc-3c2n1C | > 10 µM | 
73 | [N-]=[N+]=NC1(c2ccccc2)C(=O)c2cccc3c4ccccc4n(c23)C1=O (stereo not drawn) | > 100 µM | 
74 | CCC12CCC(O)C1N(C)CCC2Sc1ccccc1 (stereo not drawn) | > 100 µM | 
75 | CC1=CCP(C(F)(F)F)P(C(F)(F)F)C1 (stereo not drawn) | > 100 µM | 

Row | SMILES | TGI | GI50
76 | O=C1CSC2(CC(/C=C/c3cccc(Br)c3)=NN2c2cccc(S(=O)(=O)O)c2)N1c1nc2ccccc2s1 (stereo not drawn) | > 100 µM | 
77 | CCOC(=O)C(C)c1nc2cc(F)c(N3CCOCC3)cc2[nH]c1=O (stereo not drawn) | > 100 µM | 
78 | CN(C)c1ccc(/C=C(\NC(=O)c2ccccc2)c2nc3ccccc3c(=O)o2)cc1 | > 100 µM | 
79 | COC1/C=C/C(C)C(C(C)C(OC)C(C)CCC(=O)C(C)C(CC(=O)O)OC)OC(=O)/C=C/C=C(\C)CC(OC)C(OC)C2=CC(=O)O[C@@H](C(C)C(OC)CC(OC)/C=C/C(C)C(O)C1)[C@H]2O (stereo partly drawn) | > 1.07 µM | 
80 | Clc1ccccc1-c1nn2c(CCCCCCCCc3nnc4sc(-c5ccccc5Cl)nn34)nnc2s1 | > 100 µM | 
81 | N#CCN(Cc1ccccc1)[C@H]1CCC[C@]1(O)/C=C/c1ccc2c(c1)OCO2 | > 100 µM | 
82 | Cc1cc2c(c(C=Nc3ccc(N(C)C)cc3)c1)OC1(C=C2)Oc2ccccc2C(=O)N1C (stereo not drawn) | 28.6 µM | 
83 | COC(=O)C1=C(C(=O)OC)C2(c3ccccc3)c3ccccc3C(=O)C1N2C1CCCCC1 (stereo not drawn) | > 100 µM | 
84 | COc1ccc2c(c1)nc1n2C(c2c(F)cccc2F)SC1 (stereo not drawn) | > 100 µM | 
85 | NCCCn1c2c(c3ccccc3c1=O)C(=O)c1cc3c(cc1-2)OCO3 | 4.83 µM | 1.17 µM
86 | CCOC(=O)C12C3CCC1C2C(=O)C3 (stereo not drawn) | > 100 µM | 
87 | c1ccc(Oc2c3ccccc3nc3ccccc23)cc1 | 10.8 µM | 3.08 µM
88 | COc1ccc(/C=C\c2cc(OC)c(OC)c(OC)c2)cc1NC(=O)[C@@H](N)CO | > 100 µM | 0.0338 µM
89 | CCOC(=O)c1csc(NC(=O)CN2CCCCC2)n1 | > 100 µM | 
90 | COc1ccc2c(CN3CCC(CO)CC3)cc3cc4c(cc3c2c1)OCO4 | 3.56 µM | 0.257 µM
91 | CN(OC(=O)CC(=O)c1ccccc1)C(=O)Cc1ccccc1 | > 100 µM | 
92 | N.N.NCCCCN.O=C([O-])CC(=O)[O-].O=C([O-])CC(=O)[O-].[Pt+4].[Pt+4] | > 100 µM | > 100 µM
93 | CC(=O)CC(=O)CCCC(=O)Nc1ccc(Cl)cc1Cl | > 100 µM | 
94 | Cc1c2cc[n+](C)cc2c(C)c2c1[nH]c1ccc(OC(C)C)cc12 | 70.9 µM and 93.5 µM | 3.14 µM and 10.5 µM
95 | O=C(Nc1cccc(C2=NCCN2)c1)c1ccc(OCCCOc2ccc(C(=O)Nc3cccc(C4=NCCN4)c3)cc2)cc1 | 5.66 µM | 2.25 µM
96 | O=C(/C=C/c1ccsc1)c1cccs1 | > 100 µM | 
97 | COc1cc(-c2cc(C(=O)Nc3nc4ccccc4s3)nc3cc(-c4ccccc4)nn23)cc(OC)c1OC | > 100 µM | 67.5 µM
